# According to publication PMC12136788:
# Some of the results follow.
# T1: UNK ZnF1-3 (human, UniProt Q9C0B0 31-174)
# T1 sequence: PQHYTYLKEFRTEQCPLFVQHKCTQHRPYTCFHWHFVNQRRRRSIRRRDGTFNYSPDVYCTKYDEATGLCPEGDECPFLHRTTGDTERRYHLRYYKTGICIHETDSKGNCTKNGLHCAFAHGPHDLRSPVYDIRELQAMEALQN
# B1: chr10:112361861:112361862:+_ENSG00000108055_ENST00000361804|hu_mus|FALSE|FALSE (ssRNA)
# RNA: GGGAGUUCUACAGUCCGACGAUCAAUAGCUUCAUAUUUUCUAAGUUCAAGUACAUUCAUCAAUUCCAUGAUUGAUUUGUAGCCUCUAUCCAAUUCCUCUUGCCGCUUUAUCAGCUUUUCCUUCUGCUCAGAGAAAUUCACAAACAACAGAGGAUUGAGCAUCA
# B2: chr19:34925787:34925788:+_ENSG00000126261_ENST00000246548|perfect_dup|FALSE|FALSE (ssRNA)
# RNA: GGGAGUUCUACAGUCCGACGAUCAAGAUACCCAGCUGUUCCACUUUCAAUAAGAGGAACAUCAGCUGCCAGGCACAUUCUAUUAACAUGGUUUCGGGCAGCUCUGUUAUCUAAAGCAUUCAUAACCAGUAUAAACUGUCGGAACAACAGAGGAUUGAGCAUCA
# B3: chr9:95013113:95013114:-_ENSG00000196305_ENST00000443024|hu_hu|hu_hu_hu_mus_False|18_78 (ssRNA)
# RNA: GGGAGUUCUACAGUCCGACGAUCCUCAGUCAGAAAGGGCGUGUAAGGGGCCAUCAGUCUGCAAAGAGAAAGCAGGACACUGAACAGUGUCUCCAGAGCCAUGACACAGUCUUCCACCCCAUUUUCACCCUUUAACCUCCUCCUCAACAGAGGAUUGAGCAUCA
# B4: chr2:53077437:53077438:+_ENSMUSG00000026960_ENSMUST00000028336|mus_hu|FALSE|FALSE (ssRNA)
# RNA: GGGAGUUCUACAGUCCGACGAUCACAUAGGGGAAAAAUUAAGGCUUAAUUACUUAGAAAACAAAAUAUCACAAUUACAGGAGCACAUUUAAUUACAAAAAUUAUAAAAUUAUAUUAACUAUAUGUAGUUUUUAAUAUCUAGUACAACAGAGGAUUGAGCAUCA
# B5: chr7:56126124:56126125:+_ENSG00000146731_ENST00000540286|hu_mus|motif|central (ssRNA)
# RNA: GGGAGUUCUACAGUCCGACGAUCUUGAUUAAUAACGACAAAUCCUUUAUCUGAGUCACCACAGACUUUCUUUUUCAGCUCGGUGAUUUUUUUAACUCUAUCUUCAAUGAAUUUUCUUUCAGCCUUUACUAGUUUUUCUCUCUCCAACAGAGGAUUGAGCAUCA
# B6: 6213919_6217037_498_CDS_ENSMUSG00000020456_ENSMUST00000003461|mouse|control|control (ssRNA)
# RNA: GGGAGUUCUACAGUCCGACGAUCCAGAUCAGCAUCCAAAAUCCCCAGGGGGUCCAGCUGUGCUACAUGGUGCCCUCGUAUCUGAUAUGCCCUGAUGAGAGACUGCACCGCCAAGUGGUCCUCCACGAGUUUGUCGACGUUAGGCAACAGAGGAUUGAGCAUCA
# B7: chr4:128450444:128450445:-_ENSMUSG00000028799_ENSMUST00000106072|mus_mus|motif|central (ssRNA)
# RNA: GGGAGUUCUACAGUCCGACGAUCAGGCUGUUAACAGUAUUGGAACAGCAUAUUUACAGGGUAGUAACAUGCGGACAAAAGCGGCAAUACGGAGUAUCAGACGACGCAAGUCAAACAAAGGGGUGGGGGUGGGGGGCUGAGACCCAACAGAGGAUUGAGCAUCA
# B8: chr5:128441001:128441002:+_ENSG00000066583_ENST00000173527|hu_mus|FALSE|FALSE (ssRNA)
# RNA: GGGAGUUCUACAGUCCGACGAUCACACACGUGCGUUUCUACUCCAAACAACACGACACUCCGGACGCCAGGAAUCUCGGCUAACGCUGCUUCGACUUCAGGUAACACCAUAGAAAACUUGGUCUUUGGAAGAACCAGUUUCACCAACAGAGGAUUGAGCAUCA
# B9: chr19:40030274:40030275:-_ENSG00000176396_ENST00000390658|hu_mus|FALSE|FALSE (ssRNA)
# RNA: GGGAGUUCUACAGUCCGACGAUCCGGGUAGUUCUCCAGGUAGUGGCGCAGGAACUGCUGGUAAUUGAUGCCCAAGACGCUGAGGGGGUGGCGGAAGCGCAUGUACGGCAUCGCCGCCAGGCCGCCCGCCCUGGACCGGGGCCUCAACAGAGGAUUGAGCAUCA
# B10: chr11:69466514:69466515:+_ENSG00000110092_ENST00000227507|hu_hu|FALSE|FALSE (ssRNA)
# RNA: GGGAGUUCUACAGUCCGACGAUCAUAUGUUUUUCUACCUAAAACCCUCUUCUACUUUAAAAAUGGUUUGCUGAAUUUUUCUAUGUUUUUAAAAUGUUUUUAUGCUUUUUUUUAAACACGUAAAGGAUGGAACCUAAUCCUCUCCAACAGAGGAUUGAGCAUCA
# B11: chr1:109605286:109605287:-_ENSG00000197780_ENST00000461096|hu_mus|hu_hu_hu_mus_True|58_68 (ssRNA)
# RNA: GGGAGUUCUACAGUCCGACGAUCAAGUUUCAGAGUAACAUUCAGUAACCUCUUUAAAUGCAAUUAUCCUUACUUUAAACUAAGGGCAAUAAUAAUUUAAUACCGUAAGUGAACUACACACAAAGCCUGAACCGCGAAAAUGGUCAACAGAGGAUUGAGCAUCA
# B12: chr10:121347744:121347745:-_ENSG00000151923_ENST00000436547|hu_hu|motif|central (ssRNA)
# RNA: GGGAGUUCUACAGUCCGACGAUCCAAUCUGACUGAACAACUGAAGUAUAAGGACUUCUGUCACAUCUCUGGAAAGGUUACCGGCGUAUAGAGUCCGGGGCUGCCCGUCGUCUUCCAUCAUGGUGGGUGCGACGGAGCGAUCCCCAACAGAGGAUUGAGCAUCA
# B13: chr1:45981456:45981457:-_ENSG00000117450_ENST00000319248|hu_mus|FALSE|FALSE (ssRNA)
# RNA: GGGAGUUCUACAGUCCGACGAUCUCUAUCACUGAAAGCAAUGAUCUCCGUGGGACACACAAAAGUAAAGUCAAGAGGGUAAAAGAAGAACACAACAUAUUUUCCUUUGUAUUCACUUAGGCUGAUAUCUUUGAAUUGUCCAUCCAACAGAGGAUUGAGCAUCA
# B14: chr7:36427155:36427156:-_ENSMUSG00000030417_ENSMUST00000118501|mus_mus|motif|central (ssRNA)
# RNA: GGGAGUUCUACAGUCCGACGAUCCAAAGUAAACAUUUACAAGGUGGUGACUGUCCUAGACACUGCUCCGGAAGUCUGUCGGAGUGCGUCCUCUUAGUAAUCGGCGUCGUCUUCAUCGGAGUCCAUUACUUUUCUUCUGUUGAACAACAGAGGAUUGAGCAUCA
# B15: 94154221_94154341_1649_3pUTR_ENSMUSG00000020863_ENSMUST00000107820|mouse|control|control (ssRNA)
# RNA: GGGAGUUCUACAGUCCGACGAUCCUGAGACAAAACAAUGUACCUCAAAAUGUUUUGCAGGACUACACUGUCUUUUCCUUCAGAAGAGGCUUUUGUAUGUCUUCUUACUCGGCUUAGCUCCAUCUUCAUCUGUGCAUACUUACGCAACAGAGGAUUGAGCAUCA
# B16: chr13:100200628:100200629:-_ENSMUSG00000052727_ENSMUST00000064762|perfect_dup|motif|central (ssRNA)
# RNA: GGGAGUUCUACAGUCCGACGAUCGUCUCCGGGUGUCUUCCCUCCGCUGUCUUUCUCCACACUAGAUGUAGUCAAAUCUCGGUUCAAGGCCAGAUGAUGUUGCAUUGUAUCAAAUAGCAUUGAGGAGCGGAAGCCAUAGGGCUCCAACAGAGGAUUGAGCAUCA
# B17: chr2:91389038:91389039:+_ENSMUSG00000040549_ENSMUST00000099716|mus_mus|motif|central (ssRNA)
# RNA: GGGAGUUCUACAGUCCGACGAUCUAGUCCUUUCAAUUGAACCACUGCAUUGGAAUCAGUGACAAAUUUUUUGAUUAAUCCGGAGUAUUUGGACCAUUCUGGACUCUUUUCAUCCUUUAUUUUCUGGAAGAUCUUCAAGGCUUCCAACAGAGGAUUGAGCAUCA
# B18: chr17:60770872:60770873:+_ENSG00000011028_ENST00000303375|hu_hu|hu_hu_hu_mus_True|1_28 (ssRNA)
# RNA: GGGAGUUCUACAGUCCGACGAUCUCUUUAAAAAAAAAAAAAAAAAGACAAACAAUAAUAGCACAUUUCGAGAAUCAAGAACUACAAUAGAGGGUCCGCUUUGAGUUGUCCAUGUUCUCGUCCUGCACUGGGACACGACCAGGACAACAGAGGAUUGAGCAUCA
# B19: chr6:84311021:84311022:-_ENSG00000065609_ENST00000520302|hu_hu|FALSE|FALSE (ssRNA)
# RNA: GGGAGUUCUACAGUCCGACGAUCCCCAGGAGAAGCUGCAAAGGCAUCUCCAAAGAGAUCCACUUCAGCAGUGACAGCAGUAACAGUUGUAGUAGUGGAGGCAGAAGCUGAGGCAGUUGCAAUUUCAGCAGUUGUAGUAGGAGGCAACAGAGGAUUGAGCAUCA
# B20: chr12:105536279:105536280:+_ENSG00000136051_ENST00000332180|hu_mus|hu_hu_hu_mus_True|8_18 (ssRNA)
# RNA: GGGAGUUCUACAGUCCGACGAUCAGCACUGAACAUGUAAUGUAAUCUGGCUGCAUCGACAGCAUUUUCAUAUACAUCAUCUAAAUAAAUCGGGAAGACAGCGCGAUGCCAGUAUAAAAAACAACAGUCACAUUGUGCUUGGACCAACAGAGGAUUGAGCAUCA
# B21: chr11:77336104:77336105:-_ENSG00000074201_ENST00000525064|hu_hu|motif|central (ssRNA)
# RNA: GGGAGUUCUACAGUCCGACGAUCUUCGCACAUUGCAGUGAACAUUGCCUCCAACGCUGAUUUAUCACUAGGCACAAAUCGGAAUUCAGUAAUAGGUUCAACAUCAUCAUCACUGUCUUCCUCUUCUUCAUCAGCAACAGGUUCCAACAGAGGAUUGAGCAUCA
# B22: 126075893_126079953_1568_CDS_ENSG00000164961_ENST00000318410|human|control|control (ssRNA)
# RNA: GGGAGUUCUACAGUCCGACGAUCCUCUUUGAGUAUAAACUCAAAUUGUGCAGUAUCUAACAGCAGCUGGAAGAGGAUCCUGGGAUUGUACCGAGAGUCUGUUAGAAUCUGGUCCUUGAUUUGACGAAGGCGUUUGUUGUUUGGCAACAGAGGAUUGAGCAUCA
# Biological target: T1, UNK ZnF1-3
# Experiment: nsRBNS (natural sequence RNA bind-n-seq); RBNS binding buffer (assumed for nsRBNS): 25 mM Tris pH 7.5, 150 mM KCl, 3 mM MgCl2, 0.01% Triton X-100, 500 ug/ml BSA, 20 U/ml SUPERase-In, 4 C; UNK is unkempt and MSI1 is Musashi-1; names of the RNAs are library labels; protein concentration not given here; high values mean tight binding
row,Binder,binding signal
1,B1,0.761 enrichment R
2,B2,0.474 enrichment R
3,B3,1.22 enrichment R
4,B4,2.29 enrichment R
5,B5,0.421 enrichment R
6,B6,1.28 enrichment R
7,B7,2.2 enrichment R
8,B8,1.17 enrichment R
9,B9,0.663 enrichment R
10,B10,0.812 enrichment R
11,B11,0.705 enrichment R
12,B12,0.738 enrichment R
13,B13,1.21 enrichment R
14,B14,0.575 enrichment R
15,B15,0.677 enrichment R
16,B16,1.1 enrichment R
17,B17,0.953 enrichment R
18,B18,2.29 enrichment R
19,B19,1.47 enrichment R
20,B20,2.55 enrichment R
21,B21,0.758 enrichment R
22,B22,1.05 enrichment R
